Reference: PubChem BioAssay AID485313 (National Center for Advancing Translational Sciences (NCATS), 2010)
The campaign covered roughly 320,000 compounds. About 7,600 (2.4%) were called active. The shares of active, inactive and inconclusive entries below differ from those in the screen. Calls come from the whole dose curve; as a rule, active = well fitted activation curve with a large enough effect; inconclusive = small, poorly fitted or top-dose-only effect; inactive = no such curve, though single readings can be large or run the other way. Where the call is inconclusive, the potency comes from a doubtful curve fit.

Assay: qHTS Assay for NPC1 Promoter Activators; note: nearly all actives have a fitted effect of over 60% in size;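 for activation: reporter is driven by a mutant NPC1 promoter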
Conditions: Huh7 NPC1 promoter luciferase reporter, 24 h; series mostly up to 9.22 µM
Procedure, shortened: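 Huh7 reporter cells (NPC1 promoter driving luciferase) are dosed with compound for 24 h at 37 °C, 5% CO2; luciferase detection reagent is then added and luminescence measured after 10 min at ambient temperature.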
Potency is the fitted concentration of half-maximal effect; tags give direction and shape of the fitted curve.

Potency, active:
COc1ccc(C(=O)O/N=C(\N)c2ccc(Cl)cc2)cc1 3.16 µM, Clc1ccc(-c2cnc(Oc3ccccc3)nc2)cc1 0.794 µM, Cc1ccc(NC(=O)c2ccc3ncsc3c2)cc1S(=O)(=O)N(C)C 0.355 µM, Cc1ccc(NC(=O)c2oc3ccccc3c2C)nc1 3.55 µM, Cc1ccc(N=Nc2ccc(O)c(/C=N\NC(=O)c3ccc(N)cc3)c2)cc1C 1.41 µM, Cc1ccc2nc(NC(=S)NC(=O)c3cccs3)sc2c1 3.55 µM, Clc1ccccc1-c1nc(-c2ccc(Br)o2)no1 1.26 µM

Potency, inconclusive:
Cc1cc(C(=O)O)ccc1N/C=C1\CCCC(C)C1=O (stereo not drawn) 0.1 µM [activator, full curve], COc1ccc2nc(NC(=O)c3c(C)noc3C)sc2c1 3.16 µM [activator, single point], O=C(CCS(=O)(=O)c1ccccc1)N(CCCN1CCOCC1)c1nc2ccc(F)cc2s1 3.55 µM [activator, partial curve], COc1ccc(NC(=O)c2cccs2)cc1O 5.62 µM [activator, single point], CN1CCN(c2ccc(NC(=S)NC(=O)/C=C/c3ccco3)cc2)CC1 1.41 µM [activator, partial curve], COc1ccc(OC)c(Cc2nnc(CCC(=O)N3CCCCC3c3nccs3)o2)c1 (stereo not drawn) 3.16 µM [activator, single point], O=c1c2c3c(sc2nc2n1CCCS2)CCCC3 3.98 µM [activator, partial curve], CNC(=O)c1ccc(-c2ccccc2)s1 3.16 µM [activator, partial curve], COC(=O)c1nn(-c2ccc3c(c2)OCO3)cc1O 4.47 µM [activator, single point], O=C(NCCc1ccccc1)c1cc2ccccc2oc1=O 3.98 µM [activator, single point], CN1/C(=C\C(=O)c2cccs2)Sc2ccccc21 4.47 µM [activator, single point]

Potency, inactive:
O=C(CNc1ccc2c(c1)OCO2)N/N=C\c1ccccc1Cl, CCN(Cc1ccccc1)C(=O)c1ccc(C(=O)N(CC)Cc2ccccc2)cc1, O=C(Nc1ccccc1)NC1CCCCC1, CCN(c1ccc(OCC(=O)OCC(=O)c2c(N)n(C)c(=O)n(C)c2=O)cc1)S(=O)(=O)c1ccccc1, COc1ccc(NC(=O)COC(C)=O)cc1OC
